# Measurements from PubChem BioAssay AID488969 (Vanderbilt High Throughput Screening Facility, 2010).
# In all, about 110,000 compounds were measured (“z-score”: median about -0.1, highest 2% from about 2 on). This is one part of the list. Active and inactive are the calls of the source.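 Rule for the calls: active = z-score in the third read window above 3 or below -3; inactive = the rest.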
# Target: Metabotropic glutamate receptor 8 (Rattus norvegicus) (UniProt P70579)
# Test: rat mGluR8 modulators via GIRK flux, primary screen, cell-based, thallium flux, HTS (AID 488969)
# Details: HEK293 rat mGluR8, GIRK (G protein-gated inwardly rectifying potassium channel) thallium flux, FluoZin2; at 10 µM; stronger effect = higher value; submaximal glutamate (EC20) added with thallium
# Sequence of UniProt P70579 (P70579 whole entry, looked up): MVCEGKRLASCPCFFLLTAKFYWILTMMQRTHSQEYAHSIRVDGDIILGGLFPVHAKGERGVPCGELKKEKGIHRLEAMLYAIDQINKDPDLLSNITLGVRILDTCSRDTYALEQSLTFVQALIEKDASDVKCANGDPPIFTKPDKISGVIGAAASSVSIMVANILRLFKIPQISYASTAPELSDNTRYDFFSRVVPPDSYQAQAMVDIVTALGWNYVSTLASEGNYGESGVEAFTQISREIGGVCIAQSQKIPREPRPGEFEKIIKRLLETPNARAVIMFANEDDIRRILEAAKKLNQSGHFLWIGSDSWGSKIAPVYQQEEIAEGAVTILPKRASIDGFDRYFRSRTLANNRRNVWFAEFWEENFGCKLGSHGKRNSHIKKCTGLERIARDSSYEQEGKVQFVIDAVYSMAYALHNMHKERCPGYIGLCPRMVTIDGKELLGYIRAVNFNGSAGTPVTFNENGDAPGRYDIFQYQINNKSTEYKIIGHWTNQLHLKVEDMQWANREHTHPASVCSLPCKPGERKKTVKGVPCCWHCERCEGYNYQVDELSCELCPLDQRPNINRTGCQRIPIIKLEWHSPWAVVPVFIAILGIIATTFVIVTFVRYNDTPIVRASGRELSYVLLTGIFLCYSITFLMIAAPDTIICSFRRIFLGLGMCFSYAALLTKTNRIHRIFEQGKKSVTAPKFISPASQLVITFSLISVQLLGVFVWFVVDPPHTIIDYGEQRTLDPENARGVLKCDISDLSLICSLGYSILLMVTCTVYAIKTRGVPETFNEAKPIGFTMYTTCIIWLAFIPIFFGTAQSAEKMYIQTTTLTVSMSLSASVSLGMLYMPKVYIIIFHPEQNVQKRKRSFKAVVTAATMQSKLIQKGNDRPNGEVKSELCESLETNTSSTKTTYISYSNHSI
row,SMILES,z-score
1,CN(C)CCNC(=O)C(C(=O)c1ccccc1)n1ccccc1=O (centres undefined),-0.0773
2,O=C(NCCCN1CCCC1)c1ccc(CSCc2cccc(Cl)c2)o1,active: 3.42
3,COc1ccc(C(=O)c2ccc(N(C)C)cc2)c2ccccc12,-0.189
4,CC(=N\Nc1ccccc1)/C(=N/O)C(=O)Nc1ccccc1,-0.203
5,COc1ccc(CN2C(=O)C(O)(CC(=O)c3c(C)n[nH]c3C)c3ccccc32)cc1OC (centres undefined),-0.52
6,Cc1ccc(OC(F)F)c(NC(=O)Nc2cccc(C(F)(F)F)c2)c1,0.759
7,N#CC1(C#N)CC(C=O)=C(N)C1(C#N)CC(=O)C12CC3CC(CC(C3)C1)C2 (centres undefined),-0.368
8,Cc1ccc(-n2nc3ccc(NC(=O)c4ccco4)cc3n2)cc1,0.46
9,Fc1cccc2sc(Nc3nnc(-c4ccccc4)o3)nc12,active: 17.1
10,Oc1ccc(C2=Nn3c(nnc3-c3ccco3)SC2)cc1O,-0.407
11,Cc1nc2ccc(NC(=O)C(F)(F)F)cc2o1,0.0859
12,Cc1cc(C)cc(C(=O)N2CCN=C2SCc2ccc([N+](=O)[O-])cc2)c1,-0.286
13,C=CCn1c(CNC(=O)c2ccccc2C)nnc1SCC(=O)NC1CCCC1,0.32
14,Cc1cc(C)c(S(=O)(=O)N2C=CC(C(F)(F)F)=NCC2)c(C)c1,-0.196
15,CCC(C)NS(=O)(=O)c1ccc(S(=O)(=O)N(CC(=O)Nc2ccccc2)CC2CCCO2)cc1 (centres undefined),-0.398
16,CCn1c(Cc2ccccc2)nnc1SCC(=O)Nc1ccc(OC)cc1,0.447
17,CCOC(=O)N1CCN(C(=O)CN(c2ccc(C)c(C)c2)S(=O)(=O)c2ccccc2)CC1,-0.169
18,CCCc1nc2ccc(NC(=O)NCCC(=O)OCC)cc2c(=O)n1Cc1ccc(Cl)cc1,-0.126
19,Cc1cc(NS(=O)(=O)Cc2ccccc2)no1,-0.315
20,COc1cc2c(cc1OC)-c1nc3ccccc3c(=O)n1C(C)(C)C2,-0.179
21,CCOCc1nnc(NC(=O)c2c(OC)cccc2OC)s1,0.0658
22,COc1ccc(/C=C2\CCCC3C2=NN(C(=O)CSc2ncn[nH]2)C3c2ccc(OC)cc2)cc1 (centres undefined),-0.45
23,COc1ccc(N2CCN(C(CNC(=O)c3ccc4c(c3)OCO4)c3cccnc3)CC2)cc1 (centres undefined),-0.438
24,Cc1ccccc1CSCC(=O)Nc1c(C)n(C)n(-c2ccccc2)c1=O,-0.0609
25,CCN(CC)S(=O)(=O)c1ccc(NC2c3ccccc3C(=O)N2CCN2CCOCC2)cc1 (centres undefined),-0.251
26,COC(=O)NCC(c1ccco1)N1CCN(c2ccc(F)cc2)CC1 (centres undefined),-0.385
27,Cc1ccc(NC(=O)c2ccc(S(=O)(=O)N3CCOCC3)cc2)nc1,-0.416

row,SMILES,z-score
1,CCOC(=O)C1=C(C)NC(SCC(N)=O)=C(C#N)C1c1ccccc1 (centres undefined),-0.401
2,COC(=O)C1=C(C)N(C(C)c2ccccc2)C(=O)C1 (centres undefined),-0.331
3,COC(=O)c1cccc(NC(=O)C2COc3ccccc3O2)c1 (centres undefined),-0.323
4,Cc1cc(C)cc(NC(=S)Nc2ccccn2)c1,1.28
5,O=C(CSc1nc(-c2ccco2)cc(C(F)(F)F)n1)N1CCSCC1,-0.262
6,COc1cc(OC)cc(-n2nnnc2SCC(=O)NC2CCCC2)c1,-0.287
7,O=C(N/N=C\c1ccc(Sc2ccccn2)o1)c1cccc(F)c1,-0.471
8,CCc1ccccc1NC(=S)/N=C(\N)Nc1nc(C)c2cc(C)ccc2n1,1.03
9,C=CCn1c(C)c(C(C)=O)c(N2CCN(c3ccccc3)CC2)nc1=S,-0.187
10,O=C1NC2(CCCCC2)C(=O)N1/N=C/c1ccc(O)cc1O,-0.127
11,CC1=Nn2c(nnc2-c2cccs2)SC1,-0.211
12,COc1ccc(S(=O)(=O)N(CCCN2CCCC2=O)Cc2cc3c(C)cc(C)cc3[nH]c2=O)cc1,-0.276
13,NNC(=S)NCc1cccnc1,-0.257
14,Cc1nc(SCC(=O)NCc2ccco2)[nH]c(=O)c1C,0.115
15,O=C(O)C1OC2OC3(CCCCC3)OC2C2OC3(CCCCC3)OC12 (centres undefined),-0.0598
16,COc1ccccc1-c1c(C)nn2c(N3CCC(C(N)=O)CC3)cc(C)nc12,-1.24
17,COc1ccc(/C=N/NC(=S)NC2CCS(=O)(=O)C2)cc1OC (centres undefined),-0.0973
18,Cc1cc(C)c(C#N)c(SCc2cc3c(cc2Cl)OCO3)n1,0.461
19,COCCn1nnnc1CN1C2CCCC1CC(NC(C)=O)C2 (centres undefined),-0.112
20,O=C(COc1ccc(N2C(=O)c3ccccc3C2=O)cc1)c1ccccc1,-0.0529
21,CCCCOc1ncnc2c1[nH]c1ccc(OCC)cc12,-0.0441
22,C=CCNC(=O)c1c(N)n(-c2ccc3c(c2)OCO3)c2nc3ccccc3nc12,0.4
23,CCCCCCn1c(N2CCN(c3ccccc3)CC2)nc2c1c(=O)n(C)c(=O)n2C,-0.0111
24,COc1ccc(S(=O)(=O)N2CCCC(C(=O)N3CCCCCC3)C2)cc1 (centres undefined),0.166
25,Cc1scc(C(=O)NNC(=S)NCC2CCCO2)c1C (centres undefined),0.379
26,CCOC(=O)c1c(C)[nH]c(C(=O)CN2C(=O)NC(C)(c3ccc4ccccc4c3)C2=O)c1C (centres undefined),-0.218
27,O=C(Nc1scc(-c2ccc(F)cc2)c1C(=O)O)c1ccco1,-1.41
